Data reported in the supplement of paper PMC11876631.
Where a chain is given by its changes, count along the chain named. In names and notes the source's numbering stands. ± gives the standard deviation of the averaged measurements. Laboratory Escherichia coli strains with one amino-acid change in an essential protein, pooled on minimal glucose agar with carbenicillin or gentamicin at twice the control MIC (plus kanamycin and chloramphenicol for the plasmids), 48 h. Fold change of barcode share against drug-free plates; higher = less susceptible. Active = above 20 in both replicates (the paper's putatively resistant). '<' = one read or none on drug, '>' = one read or none on a drug-free plate. Shares are relative, so most strains fall below 1 when a few take over. Listed are strains with at least 15 reads on both drug-free plates, and hits; most hits rest on fewer reference reads. Replicate rank correlation about 0.5. Edits are read from barcodes.

Biological target: Escherichia coli (laboratory strain)
Test: barcode share on antibiotic plates over drug-free plates; higher = less susceptible
Procedure: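 A pool of E. coli strains, each edited to carry one amino-acid change in an essential protein, was grown for 48 h on minimal glucose agar with or without antibiotic; strain barcodes were sequenced; mean of two replicates.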

[1] = antibiotic: carbenicillin, 2× MIC (3.1 µg/mL)
[2] = antibiotic: gentamicin, 2× MIC (MIC 0.45 µg/mL)

B1: lptG I175A (protein)
chain: MQPFGVLDRYIGKTIFTTIMMTLFMLVSLSGIIKFVDQLKKAGQGSYDALGAGMYTLLSVPKDVQIFFPMAALLGALLGLGMLAQRSELVVMQASGFTRMQVALSVMKTAIPLVLLTMAIGEWVAPQGEQMARNYRAQAMYGGSLLSTQQGLWAKDGNNFVYIERVKGDEELGGASIYAFNENRRLQSVRYAATAKFDPEHKVWRLSQVDESDLTNPKQITGSQTVSGTWKTNLTPDKLGVVALDPDALSISGLHNYVKYLKSSGQDAGRYQLNMWSKIFQPLSVAVMMLMALSFIFGPLRSVPMGVRVVTGISFGFVFYVLDQIFGPLTLVYGIPPIIGALLPSASFFLISLWLLMRKS
[1]
  fold change of barcode share: 0.205 ± 0.19

B2: lptG I175W (protein)
chain: B1 chain with A175W
[1]
  fold change of barcode share: 0.208 ± 0.13
[2]
  fold change of barcode share: < 0.0141

B3: lpxB V12A (protein)
chain: MTEQRPLTIALAAGETSGDILGAGLIRALKEHVPNARFVGVAGPRMQAEGCEAWYEMEELAVMGIVEVLGRLRRLLHIRADLTKRFGELKPDVFVGIDAPDFNITLEGNLKKQGIKTIHYVSPSVWAWRQKRVFKIGRATDLVLAFLPFEKAFYDKYNVPCRFIGHTMADAMPLDPDKNAARDVLGIPHDAHCLALLPGSRGAEVEMLSADFLKTAQLLRQTYPDLEIVVPLVNAKRREQFERIKAEVAPDLSVHLLDGMGREAMVASDAALLASGTAALECMLAKCPMVVGYRMKPFTFWLAKRLVKTDYVSLPNLLAGRELVKELLQEECEPQKLAAALLPLLANGKTSHAMHDTFRELHQQIRCNADEQAAQAVLELAQ
[1]
  fold change of barcode share: 0.264 ± 0.012
[2]
  fold change of barcode share: < 0.00483

B4: lpxB V12Q (protein)
chain: B3 chain with A12Q
[1]
  fold change of barcode share: 1.27 ± 0.39
[2]
  fold change of barcode share: 0.00389 ± 0.0018

B5: lpxB V12D (protein)
chain: B3 chain with A12D
[1]
  fold change of barcode share: 1.03 ± 0.2

B6: lpxB I26A (protein)
chain: B3 chain with A12V, I26A
[1]
  fold change of barcode share: 0.393 ± 0.08
[2]
  fold change of barcode share: 0.00488 ± 0.0037

B7: lpxA V32A (protein)
chain: MIDKSAFVHPTAIVEEGASIGANAHIGPFCIAGPHVEIGEGTVLKSHVVVNGHTKIGRDNEIYQFASIGEVNQDLKYAGEPTRVEIGDRNRIRESVTIHRGTVQGGGLTKVGSDNLLMINAHIAHDCTVGNRCILANNATLAGHVSVDDFAIIGGMTAVHQFCIIGAHVMVGGCSGVAQDVPPYVIAQGNHATPFGVNIEGLKRRGFSREAITAIRNAYKLIYRSGKTLDEVKPEIAELAETYPEVKAFTDFFARSTRGLIR
[1]
  fold change of barcode share: > 48.1 [active]

B8: lpxA V171P (protein)
chain: B7 chain with A32V, V171P
[1]
  fold change of barcode share: 0.252 ± 0.069
[2]
  fold change of barcode share: 0.00761 ± 0.0039

B9: lpxA V171Q (protein)
chain: B7 chain with A32V, V171Q
[1]
  fold change of barcode share: 0.778 ± 0.62
[2]
  fold change of barcode share: < 0.00197

B10: lpxA I215A (protein)
chain: B7 chain with A32V, I215A
[1]
  fold change of barcode share: 0.161 ± 0.055
[2]
  fold change of barcode share: < 0.0169

B11: lpxA L44A (protein)
chain: B7 chain with A32V, L44A
[1]
  fold change of barcode share: 0.226 ± 0.0072
[2]
  fold change of barcode share: < 0.0123

B12: lpxA V171W (protein)
chain: B7 chain with A32V, V171W
[1]
  fold change of barcode share: 0.355 ± 0.049
[2]
  fold change of barcode share: 0.05 ± 0.06

B13: lpxA V171D (protein)
chain: B7 chain with A32V, V171D
[1]
  fold change of barcode share: 0.293 ± 0.05
[2]
  fold change of barcode share: 0.00259 ± 0.0017

B14: lpxA V171A (protein)
chain: B7 chain with A32V, V171A
[1]
  fold change of barcode share: 0.301 ± 0.023
[2]
  fold change of barcode share: 0.00695 ± 0.0037

B15: lpxA F249W (protein)
chain: B7 chain with A32V, F249W
[1]
  fold change of barcode share: 0.232 ± 0.096
[2]
  fold change of barcode share: < 0.011
